The supplement of paper PMC11417369
± gives the standard deviation of the averaged measurements. This is one part of the list.

tested on: PfAP2-EXP AP2 domain (GST-tagged); assay: gcPBM binding intensity (ln(normalized median fluorescence intensity)); higher = stronger DNA binding
Summary of the method: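 GST-tagged P. falciparum DNA-binding domains, expressed in E. coli (about 25 μg on average), were applied for 1 h to an Agilent 4 × 180k array of primer-extended double-stranded 36-bp intergenic genomic probes plus negative controls. The binding buffer was 1× PBS with 1% milk, 0.2 mg/ml BSA, 0.5% salmon testes DNA and 0.03% Triton X-100. Bound protein was detected with Alexa488 anti-GST antibody and scanned at 488 nm. Binding intensity is the highest Masliner-normalised natural-log median intensity across replicate spots of either probe orientation.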

CAGTAGTTTTTATGGGTGCAAAACATATATATAACA was tested. Which “gcPBM binding intensity (ln)” value did it give?
Its value is 9.17 ± 0.042.

Which “gcPBM binding intensity (ln)” value does the source give for “ATATATATATCAAAATGTACAAAAATAGAATTTAAA [XGTACX_site8292]” here?
The value was 9 ± 0.23.

With “ATCTTTTTACTTAATACACACACACCCAAAAAAAAA [CACACA_site8221]” as the sequence, how does the “gcPBM binding intensity (ln)” value read?
The value was 8.84 ± 0.45.

With “AAACGGCTATTAAAATGTACATGTAAATATATTAAA [XGTACX_site918]” as the sequence, how does the “gcPBM binding intensity (ln)” value read?
The value was 8.84 ± 0.46.

“AATACATATGGGTGTACACATTATATATATATATAT [CACACA_site4601]” was tested. Which “gcPBM binding intensity (ln)” value did it give?
Its value is 10.1 ± 0.24.

How did the “gcPBM binding intensity (ln)” value turn out when “CCTTTCCTAGCACATGCACACAAAAAAAAAAAAAAA [CACACA_site8396]” was run?
The value was 8.57 ± 0.071.

How did the “gcPBM binding intensity (ln)” value turn out when “TACACCCACCAACACACACACACACTAATAAAAAAA [CACACA_site8060]” was run?
Its value is 8.57 ± 0.43.

How did the “gcPBM binding intensity (ln)” value turn out when “AAAATTAAAATATCACGTACGAAGAAAAAATTAAGA [XGTACX_site6437]” was run?
The value was 8.85 ± 0.47.

How did the “gcPBM binding intensity (ln)” value turn out when “GAGGGTATAATAAAAGCACACACAAAGATATAAATA [CACACA_site9087]” was run?
Its value is 8.96 ± 0.49.

Which “gcPBM binding intensity (ln)” value does the source give for “CATGAATATTTATACATGCACACTAAAATAAAGAAT [CACACA_site2412]” here?
Its value is 9.06 ± 0.16.

“GAAAATATTACATACACGCACACATTAATATATTTA [CACACA_site2604]” was tested. Which “gcPBM binding intensity (ln)” value did it give?
The value was 8.65 ± 0.33.

“AAAAAATGCGACATGTGTACACATATATATATATAT [XGTACX_site1679]” was tested. Which “gcPBM binding intensity (ln)” value did it give?
Its value is 10.4 ± 0.11.

Which “gcPBM binding intensity (ln)” value does the source give for “TATATATATATATACACACACACACCCCAAAGCGTA [CACACA_site64]” here?
Its value is 10.4 ± 0.15.

With “ACATTTTGTAAAGAATGTACATATATATATATATTC [XGTACX_site8004]” as the sequence, how does the “gcPBM binding intensity (ln)” value read?
Its value is 8.54 ± 0.33.

With “CACTAATAGTGGATTACACACATATATCTGTATTTA [CACACA_site5403]” as the sequence, how does the “gcPBM binding intensity (ln)” value read?
The value was 8.38 ± 0.35.

Which “gcPBM binding intensity (ln)” value does the source give for “TGATTAATAATTTTCTTCATACATTAAACATCTTTT [TGCATGCA_negctrl_site342]” here?
Its value is 8.39 ± 0.41.

With “TTTTTTTTTTCATTAACACACATAAATATATATATA [CACACA_site5759]” as the sequence, how does the “gcPBM binding intensity (ln)” value read?
The value was 9.41 ± 0.042.

With “GAGAAAAATAAATACACACACATAAATAAATACATA [CACACA_site5102]” as the sequence, how does the “gcPBM binding intensity (ln)” value read?
Its value is 8.75 ± 0.42.

For “TATGTATATTTTAATTGTACGTGTATGGTTGTAAAT [XGTACX_site8738]”, which “gcPBM binding intensity (ln)” value is on record?
The value was 8.79 ± 0.38.

With “TTAATGTTATATGTGTGTACATATAAGTTTAGTAAA [XGTACX_site4651]” as the sequence, how does the “gcPBM binding intensity (ln)” value read?
Its value is 8.49 ± 0.14.

“TATTTTAATGAATTCACACATATAATTTATTTTATA [CACACA_site4538]” was tested. Which “gcPBM binding intensity (ln)” value did it give?
Its value is 8.3 ± 0.45.

With “ATATTTAAAAAATGATGTACAAAAATGTAGTCACAC [XGTACX_site6208]” as the sequence, how does the “gcPBM binding intensity (ln)” value read?
The value was 8.57 ± 0.28.

With “GAAATTAAATGACATACACACTATATTATAGATTTT [CACACA_site7468]” as the sequence, how does the “gcPBM binding intensity (ln)” value read?
The value was 8.35 ± 0.47.

Which “gcPBM binding intensity (ln)” value does the source give for “TTTTTTTTTTTTTTCTGTACAAATTAAATCTACATA [XGTACX_site8285]” here?
The value was 8.36 ± 0.8.

How did the “gcPBM binding intensity (ln)” value turn out when GACATAAAATTCAAAGTGCATAAATAAAATAAACCC was run?
Its value is 9.37 ± 0.47.

With “TTTAATTTGATAGACACATGCACACGTGCAATACTT [TGCATGCA_site777]” as the sequence, how does the “gcPBM binding intensity (ln)” value read?
The value was 8.78 ± 0.085.

How did the “gcPBM binding intensity (ln)” value turn out when “ATATATATATATAAATGTACAGATATATTTTTTATT [XGTACX_site5445]” was run?
Its value is 10.21 ± 0.078.

How did the “gcPBM binding intensity (ln)” value turn out when “TACTAAAAAATATAAACACACATATATTTTACATAT [CACACA_site2042]” was run?
Its value is 8.22 ± 0.45.

Which “gcPBM binding intensity (ln)” value does the source give for “AATATATATTAATAAAGTACAGGAAATATTTTTACC [XGTACX_site7052]” here?
Its value is 8.91 ± 0.36.

“AAAATACATAGACACACACACACACGGATATAAATA [CACACA_site7643]” was tested. Which “gcPBM binding intensity (ln)” value did it give?
The value was 8.83 ± 0.58.

How did the “gcPBM binding intensity (ln)” value turn out when “ATATAAAACTAATTTCTTTTTCTCCTTTTATTTTGT [CACACA_negctrl_site1251]” was run?
The value was 8.41 ± 0.4.

Which “gcPBM binding intensity (ln)” value does the source give for “ATAGTATCTGGTAGCTGTACGAGTCGTAGAGTGTAA [XGTACX_site4936]” here?
Its value is 8.97 ± 0.49.

How did the “gcPBM binding intensity (ln)” value turn out when “TTTGTAAGAAATAAATGTACAAAAATTAATTTTTAT [XGTACX_site8983]” was run?
The value was 8.45 ± 0.45.

Which “gcPBM binding intensity (ln)” value does the source give for “CTAATTAATGGGTACATACACACATATATACATACA [CACACA_site743]” here?
The value was 8.47 ± 0.29.

“ATATTAAAATTAAACGCATGCATATATTATAAAAGA [TGCATGCA_site231]” was tested. Which “gcPBM binding intensity (ln)” value did it give?
The value was 9.51 ± 0.31.

For “TTTTTATCAAATAAATGTACACATATTAAATGAAAT [XGTACX_site555]”, which “gcPBM binding intensity (ln)” value is on record?
The value was 8.62 ± 0.19.

With “TTCTGTATAACACAAATTTTTTTTTATTCACTCTGT [TGCATGCA_negctrl_site410]” as the sequence, how does the “gcPBM binding intensity (ln)” value read?
Its value is 8.46 ± 0.35.

How did the “gcPBM binding intensity (ln)” value turn out when “AACACTTCATACACGTGTACAAATATAATATAGACA [XGTACX_site5671]” was run?
The value was 8.84 ± 0.46.

For “AAAATATTCACGTGTACATATATATATATATATTAT [TGCATGCA_negctrl_site192]”, which “gcPBM binding intensity (ln)” value is on record?
The value was 8.97 ± 0.42.

For “GGAAATAATATTATTACACACCAAAATGTATAAAAA [CACACA_site4036]”, which “gcPBM binding intensity (ln)” value is on record?
The value was 8.45 ± 0.27.

For “AAAAAAAAAAAAAACACACACACACGCATACAAAAT [CACACA_site6794]”, which “gcPBM binding intensity (ln)” value is on record?
The value was 8.85 ± 0.55.

For “ATTAATTATATAATATGTACATATTACAAATATATA [XGTACX_site1478]”, which “gcPBM binding intensity (ln)” value is on record?
The value was 8.53 ± 0.33.

Which “gcPBM binding intensity (ln)” value does the source give for “ATATTTTTCTTAAGTACACACTAAATAGAAACTAAA [CACACA_site4191]” here?
Its value is 8.48 ± 0.3.

For “TTATATCTTATAAAATGTACATAAAATATATAATAT [XGTACX_site7647]”, which “gcPBM binding intensity (ln)” value is on record?
Its value is 8.52 ± 0.26.

Which “gcPBM binding intensity (ln)” value does the source give for “AATAATATAACAGAACAAAACTAAATATACACATAT [TGCATGCA_negctrl_site31]” here?
Its value is 8.97 ± 0.5.

Which “gcPBM binding intensity (ln)” value does the source give for “TATTTCATAATAAATTGTACGCGTAGAAAACCATGA [XGTACX_site7506]” here?
The value was 9.29 ± 0.59.

With “ATAATTACATAGATTGGTACACATTTTTGATTGTAT [XGTACX_site3802]” as the sequence, how does the “gcPBM binding intensity (ln)” value read?
Its value is 8.54 ± 0.31.

How did the “gcPBM binding intensity (ln)” value turn out when “GTACAAATGATTAATCCTTTACTTATATATATATAT [XGTACX_negctrl_site138]” was run?
The value was 10.1 ± 0.18.

How did the “gcPBM binding intensity (ln)” value turn out when “TTAAAAATGTGTGTGCGTACATAATATTTCGAAAAA [XGTACX_site8197]” was run?
The value was 8.79 ± 0.36.

How did the “gcPBM binding intensity (ln)” value turn out when “CATTTTTTTTTATAAATACACACGTACGGGTGCATA [CACACA_site1569]” was run?
The value was 8.39 ± 0.34.

With “TTCTTAAAAAAAAATAAAATAAAAAAAAAAATAAAA [CACACA_negctrl_site99]” as the sequence, how does the “gcPBM binding intensity (ln)” value read?
Its value is 8.17 ± 0.47.

“GAACATTTACGCCCCACACACCTACCAACAAAAAAA [CACACA_site7746]” was tested. Which “gcPBM binding intensity (ln)” value did it give?
Its value is 8.88 ± 0.49.

How did the “gcPBM binding intensity (ln)” value turn out when “TTCTGGCAAAATAACACACACATATATTTTATATAC [CACACA_site3242]” was run?
The value was 9.05 ± 0.22.

For “TTTTTCATATGACACACACACAAAAATAATGTGGAA [CACACA_site7692]”, which “gcPBM binding intensity (ln)” value is on record?
The value was 8.48 ± 0.43.

For “AAATGAACACGAAAGGAAAAAAAAATATATATATAT [CACACA_negctrl_site267]”, which “gcPBM binding intensity (ln)” value is on record?
The value was 9.96 ± 0.4.

“TCATTTTATTATTCTACACACTTATCTATAATTATA [CACACA_site34]” was tested. Which “gcPBM binding intensity (ln)” value did it give?
The value was 8.88 ± 0.29.

How did the “gcPBM binding intensity (ln)” value turn out when “TATAAAAAATTCTTCCTTATTTTATGATATATATAT [TGCATGCA_negctrl_site57]” was run?
The value was 9.06 ± 0.071.
